Results as given in the RNAGym collection of RNA variant scans (doi:10.1073/pnas.2313332121).
Variants at the background level are over-represented here.

B1: TPR 5TU (parent)
chain: GGAUCUUCUCGAUCUAACAAAAAAGACAAAUCUGCCACAAAGCUUGAGAGCAUCUUCGGAUGCAGAGGCGGCAGCCUUCGGUGGCGCGAUAGCGCCAACGUUCUCAACUAUGACACGCAAAACGCGUGCUCCGUUGAAUGGAGUUUAUCAUG

Variants of: B1
Experiment: polymerase ribozyme fitness, log enrichment relative to wild type (log ratio); higher = more active; in vitro selection for triplet polymerase activity
Outline: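 To select mutant libraries of each subunit of a heterodimeric triplet polymerase ribozyme, built by PCR and transcribed, each was annealed with a biotinylated primer, partner subunit and triplets, then incubated frozen at −7 °C. Extended constructs were gel-excised, captured on streptavidin beads and amplified by RT-PCR, in one round carried out in triplicate. Illumina sequencing of input and output libraries kept genotypes with ≥10 input reads and ≥1 read per output. Fitness is the base-2 logarithm of genotype enrichment relative to wild-type enrichment, from inverse-variance-weighted replicate averages.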

Compared with A22U A29C A47G U134C U139A, A22C G92C U109C U148A is higher in “polymerase ribozyme fitness (log ratio)” value: at most -4.2 for the first, -4.16 for the second.

A23C C76U C87A and A22G G92A C108G cannot be ordered by “polymerase ribozyme fitness (log ratio)” value: at most -4.2 for the first, at most -4.2 for the second.

A22C G25U U55C C85G A98C and A22C U53G C57A C95G U134G U144C cannot be ordered by “polymerase ribozyme fitness (log ratio)” value: at most -4.2 for the first, at most -4.2 for the second.

A22U A30G U82G G92U and A22U C43U A47C A91C C108U A115U A121C cannot be ordered by “polymerase ribozyme fitness (log ratio)” value: at most -4.2 for the first, at most -4.2 for the second.

A23C A30G C32A A40G C95G A110U and A22G A26G U55A C85A G136A U146A cannot be ordered by “polymerase ribozyme fitness (log ratio)” value: at most -4.2 for the first, at most -4.2 for the second.

Going from A22U C63U to A23C A91U U102G C118U, the “polymerase ribozyme fitness (log ratio)” value falls from 0.542 to at most -4.2.

A22U A49C C75U G94A and A22U A30C A39U C95U U148C cannot be ordered by “polymerase ribozyme fitness (log ratio)” value: at most -4.2 for the first, at most -4.2 for the second.

First: A22G A41G A120G G141U
Second: A22U C57A
The “polymerase ribozyme fitness (log ratio)” value of the first is higher: 1.45 for the first, -0.719 for the second.

A22U A64G A66U and A22U A23U G25A C38A G68U U78G G80U G92A G128A G141C G143C cannot be ordered by “polymerase ribozyme fitness (log ratio)” value: at most -4.2 for the first, at most -4.2 for the second.

A22G U31C C32A C51U U61G C85U A147U and A22C G42U A49G C51U G92A U130G cannot be ordered by “polymerase ribozyme fitness (log ratio)” value: at most -4.2 for the first, at most -4.2 for the second.

A22U C85U and A22U C85A are within 0.2 log units of each other in “polymerase ribozyme fitness (log ratio)” value: -0.371 for the first, -0.394 for the second.

Going from A22U C87A to A22U C95U C103G, the “polymerase ribozyme fitness (log ratio)” value rises from -4.14 to -1.55.

A22U C36A G68A U82G G83U A106U and A22U C93U A119G G140A U146C cannot be ordered by “polymerase ribozyme fitness (log ratio)” value: at most -4.2 for the first, at most -4.2 for the second.

Compared with A23C A39G C63U U104C C108G U135C, A22C C96A A97U U101C is higher in “polymerase ribozyme fitness (log ratio)” value: at most -4.2 for the first, -1.53 for the second.

A22G G83A A91U G100U and A22G A24U U55A C75G C76A C95G G124U G136U cannot be ordered by “polymerase ribozyme fitness (log ratio)” value: at most -4.2 for the first, at most -4.2 for the second.

A22U A37U A52G G59A C87G G88C C114U U134G G141U and A22U A23G U61G G86A cannot be ordered by “polymerase ribozyme fitness (log ratio)” value: at most -4.2 for the first, at most -4.2 for the second.

A22C U55G G83A G92U U148A and A22U G25U C32U G48C C96A C132G cannot be ordered by “polymerase ribozyme fitness (log ratio)” value: at most -4.2 for the first, at most -4.2 for the second.

A22U U55A U134C U135G U146G and A22U C57A A138C U145C cannot be ordered by “polymerase ribozyme fitness (log ratio)” value: at most -4.2 for the first, at most -4.2 for the second.

A22U C36G C105G and A23C C38A A40U A66C C93U cannot be ordered by “polymerase ribozyme fitness (log ratio)” value: at most -4.2 for the first, at most -4.2 for the second.

A23C A24G C96G C114U A120U and A22C U78C A98G U102G U151G cannot be ordered by “polymerase ribozyme fitness (log ratio)” value: at most -4.2 for the first, at most -4.2 for the second.

First: A22U U31C U53A G80U G92U A142U
Second: A22U U135C
The “polymerase ribozyme fitness (log ratio)” value of the first is lower: at most -4.2 for the first, -1.64 for the second.

A22G A52G G58A G70A A97G C99A U109G A120C U135G G136A and A22U C38A U61A A64G G70C A119G G128U cannot be ordered by “polymerase ribozyme fitness (log ratio)” value: at most -4.2 for the first, at most -4.2 for the second.

A22G U53A C69U C75G G84U and A22C U44A G86U cannot be ordered by “polymerase ribozyme fitness (log ratio)” value: at most -4.2 for the first, at most -4.2 for the second.

Compared with A22U C38U C87G G100A C116A C125U A150C, A23C G34U C43U A60G C132U is higher in “polymerase ribozyme fitness (log ratio)” value: at most -4.2 for the first, -4.02 for the second.

A23C C32G A91C and A22G A66U C85U A115U U139G U148C cannot be ordered by “polymerase ribozyme fitness (log ratio)” value: at most -4.2 for the first, at most -4.2 for the second.

A22G C38U A41C G58U G94C A97U A106U A119U G124A U151C and A22G U33A A52C G74C G143C cannot be ordered by “polymerase ribozyme fitness (log ratio)” value: at most -4.2 for the first, at most -4.2 for the second.

Compared with A23C A98U A113U, A23C A28U C43U U55A C57U G59A U111A G141C is lower in “polymerase ribozyme fitness (log ratio)” value: -4.18 for the first, at most -4.2 for the second.

A23C A39G G70A G94A U102G U146G U151G and A22U A30C A73C A91G cannot be ordered by “polymerase ribozyme fitness (log ratio)” value: at most -4.2 for the first, at most -4.2 for the second.

A22G A37C C76G C85U and A23C C32A U56A A60G C103A A110G G112C cannot be ordered by “polymerase ribozyme fitness (log ratio)” value: at most -4.2 for the first, at most -4.2 for the second.

A23C A29C C38U C57G A64C G84U and A22U C27G U45A G58C G62A A64C G133A U134A A147C cannot be ordered by “polymerase ribozyme fitness (log ratio)” value: at most -4.2 for the first, at most -4.2 for the second.

A22G G50C U101G A110U U145A and A22C G34U U55G G80C C95A cannot be ordered by “polymerase ribozyme fitness (log ratio)” value: at most -4.2 for the first, at most -4.2 for the second.

A23C A60G C96A C118U and A22U C75G C93G cannot be ordered by “polymerase ribozyme fitness (log ratio)” value: at most -4.2 for the first, at most -4.2 for the second.

Compared with A22U C32U U53A G80C, A22U G84U is higher in “polymerase ribozyme fitness (log ratio)” value: at most -4.2 for the first, -1.67 for the second.

A22G C32U A37G A41C G71A C95U C96G U139C and A23C A28C C57U A60C U111C U144G U145G cannot be ordered by “polymerase ribozyme fitness (log ratio)” value: at most -4.2 for the first, at most -4.2 for the second.

A22G C35G C38A C95U A98G and A22U C32A G42A G48A A52G U148A cannot be ordered by “polymerase ribozyme fitness (log ratio)” value: at most -4.2 for the first, at most -4.2 for the second.

Compared with A22U G50U C96G U145G, A22G A26G G42U A64C G65C G68A C76G G83U A138G G140A G141A is lower in “polymerase ribozyme fitness (log ratio)” value: -0.544 for the first, at most -4.2 for the second.

A22C G34C G86U A106U and A22G A23U G65A G68A G83A A119C G126A cannot be ordered by “polymerase ribozyme fitness (log ratio)” value: at most -4.2 for the first, at most -4.2 for the second.

A22C U55A C93G C99U C132G A142G and A23C C95U A98U G128A cannot be ordered by “polymerase ribozyme fitness (log ratio)” value: at most -4.2 for the first, at most -4.2 for the second.

A23C A26G G59C U61A U146A and A22U G42A U55A G86A A89G G94C cannot be ordered by “polymerase ribozyme fitness (log ratio)” value: at most -4.2 for the first, at most -4.2 for the second.

First: A22G A24U G59C C96G A98U
Second: A23C C54U U55A G71A A122G
The “polymerase ribozyme fitness (log ratio)” value of the first is higher: 0.453 for the first, at most -4.2 for the second.

A23C A26U A29G G42C G124U and A22U A66C A73C C87U A98U C103A C149G cannot be ordered by “polymerase ribozyme fitness (log ratio)” value: at most -4.2 for the first, at most -4.2 for the second.

A22C U31G G48A U109G C125U G136U and A22U A41C G86U C93U G128U cannot be ordered by “polymerase ribozyme fitness (log ratio)” value: at most -4.2 for the first, at most -4.2 for the second.
